Data taken from the supplement of paper PMC4967469.
Lines with a small IC50 respond at low doses; a limit (>, <) means that the fit lies beyond the doses tested. AUC sums up the same curve from the lowest dose to the 256-fold higher top dose: 1 means no effect, lower means more sensitive. For part of these data: The top dose, if marked as inferred, was calculated from the reported fits.

Legend:
Assay in all cases: Viability of human cancer cell lines after 72 h of drug (GDSC screen)
AV-951 = compound: COc1cc2nccc(Oc3ccc(NC(=O)Nc4cc(C)on4)c(Cl)c3)c2cc1OC [AV-951]; conditions: top dose 0.128 µM; top dose inferred
Experimental: (§1)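 Human cancer cell lines in 384-well plates, medium with 10% serum, drug for 72 h over a 256-fold dose range (nine 2-fold or five 4-fold steps up to the top dose). Adherent lines were fixed and stained with the nucleic acid dye Syto60, suspension lines read with resazurin; signal relative to control wells, capped at 0 and 100%. One two-parameter sigmoid per drug and line, fitted in a mixed model over all curves with the slope shared within a line.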

Trametinib = compound: CC(=O)Nc1cccc(-n2c(=O)n(C3CC3)c(=O)c3c(Nc4ccc(I)cc4F)n(C)c(=O)c(C)c32)c1 [Trametinib]; conditions: top dose 1 µM
Experimental: as §1

PF-4708671 = compound: CCc1cncnc1N1CCN(Cc2nc3ccc(C(F)(F)F)cc3[nH]2)CC1 [PF-4708671]; conditions: top dose 10 µM; top dose inferred
Experimental: as §1

KIN001-244 = compound: O=C(NC(COc1ccc2[nH]c(=O)[nH]c2c1)c1ccccc1)c1cccn(Cc2ccc(F)c(F)c2)c1=O [KIN001-244]; conditions: top dose 20 µM; top dose inferred
Experimental: as §1

HG-6-64-1 = compound: CCN1CCN(Cc2ccc(NC(=O)c3ccc(C)c(/C=C/c4cnc5[nH]ccc5c4OC)c3)cc2C(F)(F)F)CC1 [HG-6-64-1]; conditions: top dose 5.12 µM; top dose inferred
Experimental: as §1

I-BET-762 = compound: CCNC(=O)C[C@@H]1N=C(c2ccc(Cl)cc2)c2cc(OC)ccc2-n2c(C)nnc21 [I-BET-762]; conditions: top dose 20 µM; top dose inferred
Experimental: as §1

Row | Cell Line | AUC (AV-951) | IC50 (AV-951) [µM] | AUC (Trametinib) | IC50 (Trametinib) [µM] | AUC (PF-4708671) | IC50 (PF-4708671) [µM] | AUC (KIN001-244) | IC50 (KIN001-244) [µM] | AUC (HG-6-64-1) | IC50 (HG-6-64-1) [µM] | AUC (I-BET-762) | IC50 (I-BET-762) [µM]
1 | Hs766T (pancreas, adherent) | 0.975 | > 0.128 | 0.678 | 0.232 | 0.975 | > 10 | 0.962 | > 20 | 0.879 | > 5.12 | 0.97 | > 20
2 | Hs940-T (melanoma, adherent) | 0.982 | > 0.128 | 0.881 | > 1 | 0.946 | > 10 | 0.983 | > 20 | 0.624 | 0.758 | 0.893 | > 20
3 | Hs-578-T (breast, adherent) | 0.987 | > 0.128 | 0.807 | 0.554 | 0.975 | > 10 | 0.973 | > 20 | 0.906 | > 5.12 | 0.986 | > 20
4 | HuH-7 (liver, adherent) | 0.987 | > 0.128 | 0.458 | 0.0481 | 0.959 | > 10 | 0.969 | > 20 | 0.535 | 0.398 | 0.684 | 4.07
5 | HuO9 (osteosarcoma, adherent) | 0.844 | 0.107 | 0.93 | > 1 | 0.925 | > 10 | 0.914 | > 20 | 0.636 | 0.797 | 0.966 | > 20
6 | HuO-3N1 (osteosarcoma, adherent) | 0.923 | > 0.128 | 0.916 | > 1 | 0.947 | > 10 | 0.926 | > 20 | 0.905 | > 5.12 | 0.931 | > 20
7 | HuP-T3 (pancreas, adherent) | 0.974 | > 0.128 | 0.46 | 0.0475 | 0.953 | > 10 | 0.88 | > 20 | 0.928 | > 5.12 | 0.85 | > 20
8 | IA-LM (large cell lung carcinoma, adherent) | 0.981 | > 0.128 | 0.742 | 0.339 | 0.962 | > 10 | 0.935 | > 20 | 0.753 | 1.9 | 0.977 | > 20
9 | IHH-4 (thyroid, semi-adherent) | 0.99 | > 0.128 | 0.056 | < 0.00391 | 0.935 | > 10 | 0.875 | 13.2 | 0.577 | 0.497 | 0.984 | > 20
10 | IPC-298 (melanoma, adherent) | 0.987 | > 0.128 | 0.071 | < 0.00391 | 0.702 | 2.29 | 0.89 | > 20 | 0.887 | > 5.12 | 0.781 | 8.15
11 | J82 (bladder, adherent) | 0.988 | > 0.128 | 0.897 | > 1 | 0.968 | > 10 | 0.963 | > 20 | 0.468 | 0.262 | 0.985 | > 20
12 | JEG-3 (urogenital system, adherent) | 0.991 | > 0.128 | 0.988 | > 1 | 0.969 | > 10 | 0.991 | > 20 | 0.991 | > 5.12 | 0.991 | > 20
13 | JHH-1 (liver, adherent) | 0.985 | > 0.128 | 0.181 | 0.00615 | 0.938 | > 10 | 0.77 | 8.28 | 0.844 | 4.15 | 0.62 | 2.76
14 | JHH-2 (liver, adherent) | 0.986 | > 0.128 | 0.797 | 0.513 | 0.952 | > 10 | 0.881 | > 20 | 0.97 | > 5.12 | 0.954 | > 20
15 | JHH-4 (liver, adherent) | 0.965 | > 0.128 | 0.644 | 0.156 | 0.883 | > 10 | 0.781 | 8.24 | 0.58 | 0.529 | 0.862 | 17.1
16 | JHH-6 (liver, adherent) | 0.981 | > 0.128 | 0.937 | > 1 | 0.92 | > 10 | 0.88 | > 20 | 0.826 | 3.16 | 0.958 | > 20
17 | JHH-7 (liver, adherent) | 0.981 | > 0.128 | 0.344 | 0.0238 | 0.929 | > 10 | 0.899 | > 20 | 0.653 | 0.827 | 0.988 | > 20
18 | JHU-022 (head and neck, adherent) | 0.977 | > 0.128 | 0.459 | 0.0468 | 0.961 | > 10 | 0.954 | > 20 | 0.793 | 3.07 | 0.982 | > 20
19 | JIMT-1 (breast, adherent) | 0.985 | > 0.128 | 0.676 | 0.202 | 0.967 | > 10 | 0.908 | > 20 | 0.578 | 0.531 | 0.982 | > 20
20 | JJN-3 (haematopoietic neoplasm, suspension) | 0.993 | > 0.128 | 0.963 | > 1 | 0.97 | > 10 | 0.867 | 12.8 | 0.886 | 3.88 | 0.702 | 4.09
21 | K2 (melanoma, adherent) | 0.978 | > 0.128 | 0.162 | 0.00398 | 0.982 | > 10 | 0.918 | > 20 | 0.752 | 2.15 | 0.969 | > 20
22 | KARPAS-620 (haematopoietic neoplasm, suspension) | 0.984 | > 0.128 | 0.274 | 0.016 | 0.978 | > 10 | 0.715 | 4.55 | 0.729 | 1.28 | 0.435 | 0.855
